Drawing on article PMC10567853, “USP1 promotes cholangiocarcinoma progression by deubiquitinating PARP1 to prevent its proteasomal degradation” (Cell Death & Disease, 2023), this text covers binding for seven substances.

Chains of the proteins cited; added tags and fusions are not shown. Lines headed by an entry give the natural chain unless they say otherwise; changes in a name come on top.
UniProt P09874: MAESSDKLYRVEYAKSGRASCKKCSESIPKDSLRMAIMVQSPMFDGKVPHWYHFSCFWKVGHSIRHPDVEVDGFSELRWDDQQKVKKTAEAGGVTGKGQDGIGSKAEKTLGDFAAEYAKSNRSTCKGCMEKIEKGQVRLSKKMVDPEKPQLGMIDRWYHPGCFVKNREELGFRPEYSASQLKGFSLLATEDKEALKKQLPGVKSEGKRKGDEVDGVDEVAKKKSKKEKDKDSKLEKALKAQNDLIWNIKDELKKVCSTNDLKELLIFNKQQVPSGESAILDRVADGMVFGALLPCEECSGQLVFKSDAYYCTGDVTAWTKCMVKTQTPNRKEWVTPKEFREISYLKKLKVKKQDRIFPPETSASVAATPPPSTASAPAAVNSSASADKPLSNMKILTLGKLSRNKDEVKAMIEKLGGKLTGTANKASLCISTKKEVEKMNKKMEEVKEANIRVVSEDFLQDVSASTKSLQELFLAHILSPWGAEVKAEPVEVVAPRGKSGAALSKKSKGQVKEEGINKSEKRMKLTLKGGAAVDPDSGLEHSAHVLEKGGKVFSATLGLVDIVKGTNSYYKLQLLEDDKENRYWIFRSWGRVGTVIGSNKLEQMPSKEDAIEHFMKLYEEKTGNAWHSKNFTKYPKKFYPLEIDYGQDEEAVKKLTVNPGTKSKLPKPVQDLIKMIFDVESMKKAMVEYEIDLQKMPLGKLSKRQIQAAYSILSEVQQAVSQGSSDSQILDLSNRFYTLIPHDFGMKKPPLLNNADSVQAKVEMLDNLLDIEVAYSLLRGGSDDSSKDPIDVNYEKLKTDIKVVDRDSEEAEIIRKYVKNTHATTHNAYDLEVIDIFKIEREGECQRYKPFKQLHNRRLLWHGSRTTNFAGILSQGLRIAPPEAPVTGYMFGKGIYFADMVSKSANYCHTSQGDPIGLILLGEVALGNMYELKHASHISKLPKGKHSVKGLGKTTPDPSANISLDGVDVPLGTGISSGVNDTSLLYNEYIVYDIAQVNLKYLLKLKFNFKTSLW

For test [1], the target named is T1, HA-tagged full-length (FL) USP1 (UniProt O94782).
T1 sequence: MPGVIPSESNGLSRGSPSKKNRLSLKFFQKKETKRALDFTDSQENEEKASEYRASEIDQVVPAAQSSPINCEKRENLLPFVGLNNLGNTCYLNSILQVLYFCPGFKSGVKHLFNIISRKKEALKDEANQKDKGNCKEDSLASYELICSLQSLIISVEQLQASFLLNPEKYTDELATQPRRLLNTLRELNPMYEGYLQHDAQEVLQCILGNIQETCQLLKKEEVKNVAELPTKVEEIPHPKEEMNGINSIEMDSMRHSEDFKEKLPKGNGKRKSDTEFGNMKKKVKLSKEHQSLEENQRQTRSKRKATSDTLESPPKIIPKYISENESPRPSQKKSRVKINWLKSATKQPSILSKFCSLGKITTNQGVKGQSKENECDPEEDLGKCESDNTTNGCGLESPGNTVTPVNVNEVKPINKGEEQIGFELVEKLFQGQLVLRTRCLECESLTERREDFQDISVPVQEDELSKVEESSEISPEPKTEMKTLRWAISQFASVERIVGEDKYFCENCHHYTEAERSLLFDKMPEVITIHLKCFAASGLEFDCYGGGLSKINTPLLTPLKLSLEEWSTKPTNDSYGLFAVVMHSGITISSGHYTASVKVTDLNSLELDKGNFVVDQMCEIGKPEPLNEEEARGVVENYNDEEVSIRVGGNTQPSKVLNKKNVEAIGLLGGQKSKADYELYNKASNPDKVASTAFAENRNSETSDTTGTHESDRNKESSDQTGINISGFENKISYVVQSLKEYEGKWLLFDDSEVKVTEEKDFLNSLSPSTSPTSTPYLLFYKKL
Description: co-IP; HA- and Myc-tagged proteins co-transfected in HEK-293T cells (K130Q also in RBE); anti-HA magnetic beads or anti-MYC agarose beads overnight at 4 °C; IB with antibodies against HA or Myc.

The target of a further test is T2, HA-USP1-1-200 (UniProt O94782).
T2 sequence: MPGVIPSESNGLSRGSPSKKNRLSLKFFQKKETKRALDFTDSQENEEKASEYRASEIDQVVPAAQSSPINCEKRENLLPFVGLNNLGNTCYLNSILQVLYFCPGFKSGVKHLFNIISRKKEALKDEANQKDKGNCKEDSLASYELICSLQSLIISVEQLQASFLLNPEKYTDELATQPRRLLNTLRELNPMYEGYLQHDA
The test is described as above.

Another test has as its target T3, HA-USP1-1-400 (UniProt O94782).
T3 sequence: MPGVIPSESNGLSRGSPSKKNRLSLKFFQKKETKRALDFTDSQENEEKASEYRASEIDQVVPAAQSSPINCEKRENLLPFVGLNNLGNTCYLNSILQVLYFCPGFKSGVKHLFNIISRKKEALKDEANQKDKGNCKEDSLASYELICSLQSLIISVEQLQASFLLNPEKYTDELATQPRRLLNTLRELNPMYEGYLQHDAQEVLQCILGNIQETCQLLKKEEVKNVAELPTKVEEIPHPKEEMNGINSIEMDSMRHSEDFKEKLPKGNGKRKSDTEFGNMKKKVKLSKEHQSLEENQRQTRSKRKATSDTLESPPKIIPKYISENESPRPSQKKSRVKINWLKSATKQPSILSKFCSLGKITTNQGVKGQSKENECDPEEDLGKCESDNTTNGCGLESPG
Described as above.

The next test has as its target T4, HA-USP1-201-785 (UniProt O94782).
T4 sequence: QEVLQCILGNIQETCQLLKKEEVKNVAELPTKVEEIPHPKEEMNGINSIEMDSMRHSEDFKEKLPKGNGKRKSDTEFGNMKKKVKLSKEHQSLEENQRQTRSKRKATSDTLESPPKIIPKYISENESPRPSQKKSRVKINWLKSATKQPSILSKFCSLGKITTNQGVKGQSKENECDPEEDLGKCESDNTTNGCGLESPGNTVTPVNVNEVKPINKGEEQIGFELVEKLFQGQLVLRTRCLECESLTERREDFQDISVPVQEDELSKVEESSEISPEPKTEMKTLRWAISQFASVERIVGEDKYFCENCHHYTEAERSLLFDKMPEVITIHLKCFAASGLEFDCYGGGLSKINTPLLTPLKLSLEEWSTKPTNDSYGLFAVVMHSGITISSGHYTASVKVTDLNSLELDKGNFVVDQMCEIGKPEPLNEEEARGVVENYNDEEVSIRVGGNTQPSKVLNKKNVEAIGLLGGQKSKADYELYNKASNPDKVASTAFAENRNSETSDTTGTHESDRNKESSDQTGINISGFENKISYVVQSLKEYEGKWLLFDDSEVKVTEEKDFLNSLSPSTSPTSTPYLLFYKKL
Described as above.

Another test addresses T5, HA-USP1-401-785 (UniProt O94782).
T5 sequence: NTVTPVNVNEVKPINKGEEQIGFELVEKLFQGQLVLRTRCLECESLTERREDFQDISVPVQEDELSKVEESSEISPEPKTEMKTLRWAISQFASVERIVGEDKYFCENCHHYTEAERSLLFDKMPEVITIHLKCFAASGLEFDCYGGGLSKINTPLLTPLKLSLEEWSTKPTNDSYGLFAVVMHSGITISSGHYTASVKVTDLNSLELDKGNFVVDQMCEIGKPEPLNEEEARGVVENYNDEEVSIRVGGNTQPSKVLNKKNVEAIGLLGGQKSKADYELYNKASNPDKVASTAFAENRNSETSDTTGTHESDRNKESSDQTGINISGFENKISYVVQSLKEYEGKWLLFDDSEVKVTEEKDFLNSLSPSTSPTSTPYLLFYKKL
Described as above.

The target in another test is T6, HA-USP1-K130Q (UniProt O94782).
T6 sequence: T1 sequence with K130Q
The description is as above.

In test [2] the target is T7, USP1 (ubiquitin-specific protease 1), endogenous (human (endogenous in HuCC-T1, HCCC-9810, RBE)) (UniProt O94782).
T7 sequence: T1 sequence
Description: proximity ligation; in situ PLA on fixed cells with anti-USP1 and anti-PARP1 antibodies (Duolink rabbit PLUS, mouse MINUS).

For test [3], the target named is T7, USP1 (ubiquitin-specific protease 1), endogenous (human (endogenous in HuCC-T1, HCCC-9810, RBE)). Nature of the test: co-IP; endogenous proteins in lysates of HuCC-T1, HCCC-9810 and RBE cells; 3 ug antibody overnight at 4 °C, Protein A/G beads; IgG as isotype control.

Positions count from the first letter of the chain named. No constants are given. Whether binding was seen depends on the method and setting. In cells and extracts the contact can be indirect. Some entries that bind do so weakly or less than the wild type. For some of these results: Sequences can lack the tags named with a protein.

Regarding “Myc-PARP1-1-203 (from UniProt P09874 1-203) (domain or fragment)”, the binding entry in test [1] was “no binding”.
Still for that read-out and setting: next, “Myc-PARP1-1-476 (from UniProt P09874 1-476) (domain or fragment)”: “binds”; “Myc-PARP1-1-638 (from UniProt P09874 1-638) (domain or fragment)”: “binds”.
“Myc-PARP1-1-779 (from UniProt P09874 1-779) (domain or fragment)”: in test [1], the binding result is reported as “binds”.
For the substance “Myc-PARP1-203-1014 (from UniProt P09874 203-1014) (domain or fragment)”, the binding result in test [1] is on record as “binds”.
On to “Myc-tagged full-length (FL) PARP1 (from UniProt P09874 1-1014) (enzyme)”, for which the binding result with HA-USP1-1-200 is “no binding”; with HA-USP1-1-400 it was “no binding”; with HA-USP1-201-785, “binds”; in the test with HA-USP1-401-785, “binds”; with HA-USP1-K130Q it was “binds”; in test [1] it was “binds”.
With “Poly (ADP-ribose) polymerase 1 (PARP1), endogenous (from UniProt P09874 1-1014) (enzyme)”, the binding entry in test [2] and in test [3] was “binds” in each case.
